From the supplement of paper PMC11741623
The other results are listed elsewhere or left out. Interaction screen of human proteins with wild-type SARS-CoV-2 proteins by split-DHFR complementation in yeast, 1 µg/mL methotrexate. Value = fitness of the pair (three or more lineages) minus that of the viral protein without a human partner, on a scale set by negative (0) and fused positive (1) controls, mean of up to three cultures; higher = more likely to interact. Active = false discovery rate below 0.05 (one-sided t-test) in at least one culture. Nearly all pairs are not hits, and differences among them are mostly noise (correlation between cultures about 0.3); most hits were seen in one culture only. Human sequences are the Swiss-Prot entries looked up by gene name; the clone may be another isoform. NSP2 values were corrected by the authors for a growth advantage. Listed are human proteins with a hit and a random twelfth of the others.

What was measured:
Assay in all cases: yeast fitness gain over the viral ORF with no human partner (scaled fitness); higher = more likely to interact
[1] = biological target: SARS-CoV-2 N
Description: (§1)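 Split mouse DHFR complementation in pooled diploid yeast: human ORFeome clones carry one fragment and viral ORFs the other; barcoded lineages compete in 1 µg/mL methotrexate and fitness is read by barcode sequencing in up to three cultures.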

[2] = biological target: SARS-CoV-2 NSP10
Description: as §1

[3] = biological target: SARS-CoV-2 NSP12
Description: as §1

[4] = biological target: SARS-CoV-2 NSP13
Description: as §1

[5] = biological target: SARS-CoV-2 NSP15
Description: as §1

[6] = biological target: SARS-CoV-2 NSP16
Description: as §1

[7] = biological target: SARS-CoV-2 NSP2
Description: as §1

[8] = biological target: SARS-CoV-2 NSP5
Description: as §1

[9] = biological target: SARS-CoV-2 NSP7
Description: as §1

[10] = biological target: SARS-CoV-2 NSP8
Description: as §1

[11] = biological target: SARS-CoV-2 ORF10
Description: as §1

[12] = biological target: SARS-CoV-2 ORF3B
Description: as §1

[13] = biological target: SARS-CoV-2 ORF6
Description: as §1

[14] = biological target: SARS-CoV-2 ORF7A
Description: as §1

[15] = biological target: SARS-CoV-2 ORF7B
Description: as §1

[16] = biological target: SARS-CoV-2 ORF8
Description: as §1

[17] = biological target: SARS-CoV-2 ORF9B
Description: as §1

[18] = biological target: SARS-CoV-2 S
Description: as §1

[19] = biological target: SARS-CoV-2 NSP1
Description: as §1

[20] = biological target: SARS-CoV-2 ORF9Bwu (the 73-codon ORF)
Description: as §1

[21] = biological target: SARS-CoV-2 NSP4
Description: as §1

[22] = biological target: SARS-CoV-2 NSP6
Description: as §1

Measured: yeast fitness gain

B1: ACOT13, Q9NPJ3 (protein)
chain: MTSMTQSLREVIKAMTKARNFERVLGKITLVSAAPGKVICEMKVEEEHTNAIGTLHGGLTATLVDNISTMALLCTERGAPGVSVDMNITYMSPAKLGEDIVITAHVLKQGKTLAFTSVDLTNKATGKLIAQGRHTKHLGN
inactive: [1] -0.0359 | [2] -0.0143 | [3] -0.0866 | [4] -0.11 | [5] -0.0136 | [6] -0.371 | [7] -0.171 | [8] 0.0102 | [9] -0.192 | [10] 0.00777 | [11] -0.0484 | [12] -0.0434 | [13] 0.0339 | [14] 0.034 | [15] 0.0951 | [16] 0.0347 | [17] -0.0943 | [18] -0.461

B2: ZCCHC14, Q8WYQ9 (protein)
chain: MASNHPAFSFHQKQVLRQELTQIQSSLNGGGGHGGKGAPGPGGALPTCPACHKITPRTEAPVSSVSNSLENALHTSAHSTEESLPKRPLGKHSKVSVEKIDLKGLSHTKNDRNVECSFEVLWSDSSITSVTKSSSEVTEFISKLCQLYPEENLEKLIPCLAGPDAFYVERNHVDLDSGLRYLASLPSHVLKNDHVRRFLSTSSPPQQLQSPSPGNPSLSKVGTVMGVSGRPVCGVAGIPSSQSGAQHHGQHPAGSAAPLPHCSHAGSAGSALAYRTQMDTSPAILMPSSLQTPQTQEQNGILDWLRKLRLHKYYPVFKQLSMEKFLSLTEEDLNKFESLTMGAKKKLKTQLELEKEKSERRCLNPSAPPLVTSSGVARVPPTSHVGPVQSGRGSHAAELRVEVEQPHHQLPREGSSSEYSSSSSSPMGVQAREESSDSAEENDRRVEIHLESSDKEKPVMLLNHFTSSSARPTAQVLPVQNEASSNPSGHHPLPPQMLSAASHITPIRMLNSVHKPERGSADMKLLSSSVHSLLSLEERNKGSGPRSSMKVDKSFGSAMMDVLPASAPHQPVQVLSGLSESSSMSPTVSFGPRTKVVHASTLDRVLKTAQQPALVVETSTAATGTPSTVLHAARPPIKLLLSSSVPADSAISGQTSCPNNVQISVPPAIINPRTALYTANTKVAFSAMSSMPVGPLQGGFCANSNTASPSSHPSTSFANMATLPSCPAPSSSPALSSVPESSFYSSSGGGGSTGNIPASNPNHHHHHHHQQPPAPPQPAPPPPGCIVCTSCGCSGSCGSSGLTVSYANYFQHPFSGPSVFTFPFLPFSPMCSSGYVSAQQYGGGSTFPVVHAPYSSSGTPDPVLSGQSTFAVPPMQNFMAGTAGVYQTQGLVGSSNGSSHKKSGNLSCYNCGATGHRAQDCKQPSMDFNRPGTFRLKYAPPAESLDSTD
inactive: [1] -0.0468 | [19] 0.114 | [6] 0.0311 | [9] -0.0806 | [10] -0.0477 | [20] 0.0753

B3: USP1, O94782 (protein)
chain: MPGVIPSESNGLSRGSPSKKNRLSLKFFQKKETKRALDFTDSQENEEKASEYRASEIDQVVPAAQSSPINCEKRENLLPFVGLNNLGNTCYLNSILQVLYFCPGFKSGVKHLFNIISRKKEALKDEANQKDKGNCKEDSLASYELICSLQSLIISVEQLQASFLLNPEKYTDELATQPRRLLNTLRELNPMYEGYLQHDAQEVLQCILGNIQETCQLLKKEEVKNVAELPTKVEEIPHPKEEMNGINSIEMDSMRHSEDFKEKLPKGNGKRKSDTEFGNMKKKVKLSKEHQSLEENQRQTRSKRKATSDTLESPPKIIPKYISENESPRPSQKKSRVKINWLKSATKQPSILSKFCSLGKITTNQGVKGQSKENECDPEEDLGKCESDNTTNGCGLESPGNTVTPVNVNEVKPINKGEEQIGFELVEKLFQGQLVLRTRCLECESLTERREDFQDISVPVQEDELSKVEESSEISPEPKTEMKTLRWAISQFASVERIVGEDKYFCENCHHYTEAERSLLFDKMPEVITIHLKCFAASGLEFDCYGGGLSKINTPLLTPLKLSLEEWSTKPTNDSYGLFAVVMHSGITISSGHYTASVKVTDLNSLELDKGNFVVDQMCEIGKPEPLNEEEARGVVENYNDEEVSIRVGGNTQPSKVLNKKNVEAIGLLGGQKSKADYELYNKASNPDKVASTAFAENRNSETSDTTGTHESDRNKESSDQTGINISGFENKISYVVQSLKEYEGKWLLFDDSEVKVTEEKDFLNSLSPSTSPTSTPYLLFYKKL
inactive: [19] 0.0739 | [2] -0.108 | [4] -0.247 | [15] -0.426

B4: ATP1B2, P14415 (protein)
chain: MVIQKEKKSCGQVVEEWKEFVWNPRTHQFMGRTGTSWAFILLFYLVFYGFLTAMFTLTMWVMLQTVSDHTPKYQDRLATPGLMIRPKTENLDVIVNVSDTESWDQHVQKLNKFLEPYNDSIQAQKNDVCRPGRYYEQPDNGVLNYPKRACQFNRTQLGNCSGIGDSTHYGYSTGQPCVFIKMNRVINFYAGANQSMNVTCAGKRDEDAENLGNFVMFPANGNIDLMYFPYYGKKFHVNYTQPLVAVKFLNVTPNVEVNVECRINAANIATDDERDKFAGRVAFKLRINKT
inactive: [19] 0.0388 | [2] 0.0208 | [3] 0.15 | [4] 0.0508 | [7] -0.108 | [21] -0.392 | [22] 0.0052 | [10] 0.0247 | [11] 0.0494 | [12] -0.168 | [13] -0.115 | [15] -0.0715 | [16] -0.0828 | [17] 0.0806
